Results published in the antibiotic and cytotoxicity screens of Wong et al. (2023).
The list shows a part of the results.

Each compound was assayed on HepG2 (assay: cytotoxicity call (relative viability < 0.9)). Settings: 10 µM.

| SMILES | cytotoxicity call |
| --- | --- |
| C[C@H]1CN([C@@H](C)CO)C(=O)c2cc(C#CC3(O)CCCC3)cnc2O[C@@H]1CN(C)S(=O)(=O)c1cccc(F)c1 | inactive |
| C[C@H](CO)N1C[C@H](C)[C@H](CN(C)Cc2ccncc2)Oc2ccc(NS(=O)(=O)c3cn(C)cn3)cc2C1=O | inactive |
| COc1cccc(NC(=O)N[C@H]2CC[C@@H](CC(=O)N3CCOCC3)O[C@H]2CO)c1 | inactive |
| O=C(C[C@H]1CC[C@@H]2[C@H](COC[C@H](O)CN2S(=O)(=O)c2cccc(Cl)c2)O1)NC1Cc2ccccc2C1 | inactive |
| C[C@H]1CN([C@@H](C)CO)C(=O)c2c(c3ccccc3n2C)-c2ccccc2CO[C@@H]1CN(C)Cc1ccc(O)cc1 | inactive |
| Cc1ccccc1NC(=O)Nc1ccc(CC(=O)N(C)[C@@H](CC(C)C)C(=O)NCC[C@H](NC(=O)[C@@H]2CCCN2S(=O)(=O)c2cc(Cl)cc(Cl)c2)C(=O)O)cc1 | inactive |
| C[C@@H]1CN([C@H](C)CO)S(=O)(=O)c2ccc(C#C[C@@H](C)O)cc2O[C@@H]1CN(C)C(=O)Nc1ccccc1 | inactive |
| C[C@H](CO)N1C[C@H](C)[C@@H](CN(C)C(=O)Cc2ccccn2)Oc2cc(C#C[C@@H](C)O)ccc2S1(=O)=O | inactive |
| C[C@@H]1CCCCO[C@@H](CN(C)C(=O)CCC(F)(F)F)[C@@H](C)CN([C@H](C)CO)C(=O)c2cc(NC(=O)C3CCCCC3)ccc2O1 | inactive |
| COc1ccccc1C#Cc1cnc2c(c1)C(=O)N([C@H](C)CO)C[C@@H](C)[C@@H](CN(C)C(=O)c1ccc3c(c1)OCO3)O2 | inactive |
| C=CCOC(=O)[C@H]1[C@@H]2C(=O)O[C@@H](c3ccccc3)[C@@H](c3ccccc3)N2[C@@H](c2ccc(OCCOC(=O)NCCCCCC(=O)NO)cc2)[C@@]12C(=O)Nc1ccc(I)cc12 | inactive |
| C[C@@H]1CN([C@@H](C)CO)C(=O)Cc2cc(NC(=O)Nc3ccc(F)cc3)ccc2O[C@@H]1CN(C)Cc1ccc(-c2ccccc2)cc1 | active |
| CCNC(=O)C[C@H]1CC[C@H]2[C@@H](COc3ccc(NS(=O)(=O)c4ccccc4C)cc3C(=O)N2C)O1 | inactive |
| Cn1c(=O)sn(-c2ccccc2)c1=O | inactive |
| C[C@@H]1CN([C@H](C)CO)C(=O)c2cc(NC(=O)CCC(F)(F)F)ccc2O[C@@H](C)CCCCO[C@H]1CN(C)Cc1ccccc1 | inactive |
| C[C@H]1CN([C@@H](C)CO)C(=O)c2cc(C#CC3CCCC3)cnc2O[C@H]1CN(C)C(=O)Cc1ccccn1 | inactive |
| C[C@@H]1CN([C@@H](C)CO)C(=O)Cc2cc(NC(=O)CCN3CCOCC3)ccc2O[C@H]1CN(C)Cc1ccc(C(=O)Nc2ccccc2N)cc1 | inactive |
| C=C1C(C2(C)C=CC(=O)C(C)(C)C2CC(=O)OC)CCC2(C)C(c3ccoc3)OC(=O)C3OC132 (stereo not drawn) | inactive |

Each compound was assayed on S. aureus RN4220 (assay: growth inhibition call (relative growth <= 0.2)). Settings: 50 µM.

| SMILES | growth inhibition call |
| --- | --- |
| O=C(O)CSCC(=O)N[C@H]1CCSC1=O | inactive |
| COC(=O)C[C@H]1CC[C@H]2[C@@H](COC[C@H](O)CN2S(=O)(=O)c2ccc(F)cc2)O1 | inactive |
| C[C@@H]1COC(=O)[C@H](Cc2ccc(F)cc2)CC=CC[C@H](CC(=O)N(CCO)Cc2ccccc2)C(=O)N1 | inactive |
| O=c1cc[nH]c(=O)[nH]1 | inactive |
| COc1ccccc1-c1ccc2c(c1)O[C@@H](CN(C)CC1CCOCC1)[C@@H](C)CN([C@@H](C)CO)S2(=O)=O | inactive |
| C[C@H](CO)N1C[C@H](C)[C@@H](CN(C)C(=O)Nc2ccc(C(F)(F)F)cc2)Oc2c(NS(=O)(=O)c3ccc(F)cc3)cccc2C1=O | inactive |
| Cn1nc(CCO)cc1C(F)(F)F | inactive |
| Cc1noc(C)c1NC(=O)N(C)C[C@@H]1OCCCC[C@H](C)Oc2ccc(NC(=O)Nc3ccc(C(F)(F)F)cc3)cc2C(=O)N([C@@H](C)CO)C[C@@H]1C | inactive |
| C[C@@H]1CCC[C@H](C)N1c1nn(C)c(=O)[nH]1 | inactive |
| C[C@@H]1CN([C@H](C)CO)C(=O)c2cc(NC(=O)Nc3ccc(C(F)(F)F)cc3)ccc2O[C@@H](C)CCCCO[C@H]1CN(C)Cc1ccccc1 | inactive |
| Cc1noc(C)c1NC(=O)N[C@H]1CC[C@H](CC(=O)N2CCN(C)CC2)O[C@@H]1CO | inactive |
| C[C@@H]1CCCCO[C@@H](CN(C)Cc2ccc(C(=O)O)cc2)[C@@H](C)CN([C@H](C)CO)C(=O)c2cc(NC(=O)CCC(F)(F)F)ccc2O1 | inactive |
| C[C@H]1CN([C@@H](C)CO)C(=O)Cc2cc(NC(=O)Cn3cnnn3)ccc2O[C@H]1CN(C)C(=O)Nc1ccc(C(F)(F)F)cc1 | inactive |
| CCN(CC)C(=O)c1ccc[n+](CC(N)=O)c1 | inactive |
| COc1cc(CN2C(=O)[C@@H]3[C@H]4C(=O)O[C@@H](c5ccccc5)[C@H](C)N(C)C(=O)CC/C=C\CN(Cc5ccccc5)C(=O)[C@H]2[C@]32C=C[C@@H]4O2)ccc1O[SiH](C(C)C)C(C)C | inactive |
| Cc1cccc(/C=N/Nc2cc(N3CCOCC3)n3nc(-c4ccncc4)cc3n2)c1 | inactive |
| Nc1ncnc2c1ncn2CCO | inactive |
| CN[C@H]1[C@@H](O[C@H]2[C@@H](O[C@H]3[C@@H](O)[C@@H](O)[C@@H](NC(=N)N)[C@@H](O)[C@@H]3NC(=N)N)O[C@@H](C)[C@@]2(O)C=O)O[C@@H](CO)[C@@H](O)[C@@H]1O.CN[C@H]1[C@@H](O[C@H]2[C@@H](O[C@H]3[C@@H](O)[C@@H](O)[C@@H](NC(=N)N)[C@@H](O)[C@@H]3NC(=N)N)O[C@@H](C)[C@@]2(O)C=O)O[C@@H](CO)[C@@H](O)[C@@H]1O.O=S(=O)(O)O.O=S(=O)(O)O.O=S(=O)(O)O | inactive |
| CC(C)CC#Cc1cnc2c(c1)C(=O)N([C@H](C)CO)C[C@H](C)[C@@H](CN(C)C(=O)c1ccc3c(c1)OCO3)O2 | inactive |
| COCC#Cc1ccc2c(c1)O[C@@H](CN(C)S(C)(=O)=O)[C@H](C)CN([C@H](C)CO)S2(=O)=O | inactive |

| SMILES | growth inhibition call |
| --- | --- |
| COc1ccc(S(=O)(=O)Nc2cccc3c2O[C@H](CN(C)C(=O)Nc2c(C)noc2C)[C@@H](C)CN([C@H](C)CO)C3=O)cc1 | inactive |
| C[C@H](CO)N1C[C@H](C)[C@@H](CN(C)CC2CCOCC2)Oc2ncc(C#Cc3ccc(F)cc3)cc2C1=O | inactive |
| C[C@H]1CN([C@@H](C)CO)C(=O)c2cc(C#CC3(O)CCCC3)cnc2O[C@@H]1CN(C)S(=O)(=O)c1cccc(F)c1 | inactive |
| C[C@H](CO)N1C[C@H](C)[C@H](CN(C)Cc2ccncc2)Oc2ccc(NS(=O)(=O)c3cn(C)cn3)cc2C1=O | inactive |
| COc1cccc(NC(=O)N[C@H]2CC[C@@H](CC(=O)N3CCOCC3)O[C@H]2CO)c1 | inactive |
| O=C(C[C@H]1CC[C@@H]2[C@H](COC[C@H](O)CN2S(=O)(=O)c2cccc(Cl)c2)O1)NC1Cc2ccccc2C1 | inactive |
| C[C@H]1CN([C@@H](C)CO)C(=O)c2c(c3ccccc3n2C)-c2ccccc2CO[C@@H]1CN(C)Cc1ccc(O)cc1 | inactive |
| Cc1ccccc1NC(=O)Nc1ccc(CC(=O)N(C)[C@@H](CC(C)C)C(=O)NCC[C@H](NC(=O)[C@@H]2CCCN2S(=O)(=O)c2cc(Cl)cc(Cl)c2)C(=O)O)cc1 | inactive |
| C[C@@H]1CN([C@H](C)CO)S(=O)(=O)c2ccc(C#C[C@@H](C)O)cc2O[C@@H]1CN(C)C(=O)Nc1ccccc1 | inactive |
| C[C@H](CO)N1C[C@H](C)[C@@H](CN(C)C(=O)Cc2ccccn2)Oc2cc(C#C[C@@H](C)O)ccc2S1(=O)=O | inactive |
| C[C@@H]1CCCCO[C@@H](CN(C)C(=O)CCC(F)(F)F)[C@@H](C)CN([C@H](C)CO)C(=O)c2cc(NC(=O)C3CCCCC3)ccc2O1 | inactive |
| COc1ccccc1C#Cc1cnc2c(c1)C(=O)N([C@H](C)CO)C[C@@H](C)[C@@H](CN(C)C(=O)c1ccc3c(c1)OCO3)O2 | inactive |
| C=CCOC(=O)[C@H]1[C@@H]2C(=O)O[C@@H](c3ccccc3)[C@@H](c3ccccc3)N2[C@@H](c2ccc(OCCOC(=O)NCCCCCC(=O)NO)cc2)[C@@]12C(=O)Nc1ccc(I)cc12 | inactive |
| C[C@@H]1CN([C@@H](C)CO)C(=O)Cc2cc(NC(=O)Nc3ccc(F)cc3)ccc2O[C@@H]1CN(C)Cc1ccc(-c2ccccc2)cc1 | inactive |
| CCNC(=O)C[C@H]1CC[C@H]2[C@@H](COc3ccc(NS(=O)(=O)c4ccccc4C)cc3C(=O)N2C)O1 | inactive |
| Cn1c(=O)sn(-c2ccccc2)c1=O | inactive |
| C[C@@H]1CN([C@H](C)CO)C(=O)c2cc(NC(=O)CCC(F)(F)F)ccc2O[C@@H](C)CCCCO[C@H]1CN(C)Cc1ccccc1 | inactive |
| C[C@H]1CN([C@@H](C)CO)C(=O)c2cc(C#CC3CCCC3)cnc2O[C@H]1CN(C)C(=O)Cc1ccccn1 | inactive |
| C[C@@H]1CN([C@@H](C)CO)C(=O)Cc2cc(NC(=O)CCN3CCOCC3)ccc2O[C@H]1CN(C)Cc1ccc(C(=O)Nc2ccccc2N)cc1 | inactive |
| C=C1C(C2(C)C=CC(=O)C(C)(C)C2CC(=O)OC)CCC2(C)C(c3ccoc3)OC(=O)C3OC132 (stereo not drawn) | inactive |
